{"source": "the supplement of paper PMC11876631", "proteins": {"B1": {"name": "der M88Q (protein)", "chain": "MVPVVALVGRPNVGKSTLFNRLTRTRDALVADFPGLTRDRKYGRAEIEGREFICIDTGGIDGTEDGVETRMAEQSLLAIEEADVVLFQVDARAGLMPADEAIAKHLRSREKPTFLVANKTDGLDPDQAVVDFYSLGLGEIYPIAASHGRGVLSLLEHVLLPWMEDLAPQEEVDEDAEYWAQFEAEENGEEEEEDDFDPQSLPIKLAIVGRPNVGKSTLTNRILGEERVVVYDMPGTTRDSIYIPMERDGREYVLIDTAGVRKRGKITDAVEKFSVIKTLQAIEDANVVMLVIDAREGISDQDLSLLGFILNSGRSLVIVVNKWDGLSQEVKEQVKETLDFRLGFIDFARVHFISALHGSGVGNLFESVREAYDSSTRRVGTSMLTRIMTMAVEDHQPPLVRGRRVKLKYAHAGGYNPPIVVIHGNQVKDLPDSYKRYLMNYFRKSLDVMGSPIRIQFKEGENPYANKRNTLTPTQMRKRKRLMKHIKKNK"}, "B2": {"name": "dfp V325A (protein)", "chain": "MSLAGKKIVLGVSGGIAAYKTPELVRRLRDRGADVRVAMTEAAKAFITPLSLQAVSGYPVSDSLLDPAAEAAMGHIELGKWADLVILAPATADLIARVAAGMANDLVSTICLATPAPVAVLPAMNQQMYRAAATQHNLEVLASRGLLIWGPDSGSQACGDIGPGRMLDPLTIVDMAVAHFSPVNDLKHLNIMITAGPTREPLDPVRYISNHSSGKMGFAIAAAAARRGANVTLVSGPVSLPTPPFVKRVDVMTALEMEAAVNASVQQQNIFIGCAAVADYRAATVAPEKIKKQATQGDELTIKMVKNPDIVAGVAALKDHRPYVAGFAAETNNVEEYARQKRIRKNLDLICANDVSQPTQGFNSDNNALHLFWQDGDKVLPLERKELLGQLLLDEIVTRYDEKNRR"}, "B3": {"name": "dfp V325W (protein)", "chain": "MSLAGKKIVLGVSGGIAAYKTPELVRRLRDRGADVRVAMTEAAKAFITPLSLQAVSGYPVSDSLLDPAAEAAMGHIELGKWADLVILAPATADLIARVAAGMANDLVSTICLATPAPVAVLPAMNQQMYRAAATQHNLEVLASRGLLIWGPDSGSQACGDIGPGRMLDPLTIVDMAVAHFSPVNDLKHLNIMITAGPTREPLDPVRYISNHSSGKMGFAIAAAAARRGANVTLVSGPVSLPTPPFVKRVDVMTALEMEAAVNASVQQQNIFIGCAAVADYRAATVAPEKIKKQATQGDELTIKMVKNPDIVAGVAALKDHRPYVWGFAAETNNVEEYARQKRIRKNLDLICANDVSQPTQGFNSDNNALHLFWQDGDKVLPLERKELLGQLLLDEIVTRYDEKNRR"}, "B4": {"name": "dfp V325D (protein)", "chain": "MSLAGKKIVLGVSGGIAAYKTPELVRRLRDRGADVRVAMTEAAKAFITPLSLQAVSGYPVSDSLLDPAAEAAMGHIELGKWADLVILAPATADLIARVAAGMANDLVSTICLATPAPVAVLPAMNQQMYRAAATQHNLEVLASRGLLIWGPDSGSQACGDIGPGRMLDPLTIVDMAVAHFSPVNDLKHLNIMITAGPTREPLDPVRYISNHSSGKMGFAIAAAAARRGANVTLVSGPVSLPTPPFVKRVDVMTALEMEAAVNASVQQQNIFIGCAAVADYRAATVAPEKIKKQATQGDELTIKMVKNPDIVAGVAALKDHRPYVDGFAAETNNVEEYARQKRIRKNLDLICANDVSQPTQGFNSDNNALHLFWQDGDKVLPLERKELLGQLLLDEIVTRYDEKNRR"}, "B5": {"name": "dfp V325P (protein)", "chain": "MSLAGKKIVLGVSGGIAAYKTPELVRRLRDRGADVRVAMTEAAKAFITPLSLQAVSGYPVSDSLLDPAAEAAMGHIELGKWADLVILAPATADLIARVAAGMANDLVSTICLATPAPVAVLPAMNQQMYRAAATQHNLEVLASRGLLIWGPDSGSQACGDIGPGRMLDPLTIVDMAVAHFSPVNDLKHLNIMITAGPTREPLDPVRYISNHSSGKMGFAIAAAAARRGANVTLVSGPVSLPTPPFVKRVDVMTALEMEAAVNASVQQQNIFIGCAAVADYRAATVAPEKIKKQATQGDELTIKMVKNPDIVAGVAALKDHRPYVPGFAAETNNVEEYARQKRIRKNLDLICANDVSQPTQGFNSDNNALHLFWQDGDKVLPLERKELLGQLLLDEIVTRYDEKNRR"}, "B6": {"name": "dfp V311A (protein)", "chain": "MSLAGKKIVLGVSGGIAAYKTPELVRRLRDRGADVRVAMTEAAKAFITPLSLQAVSGYPVSDSLLDPAAEAAMGHIELGKWADLVILAPATADLIARVAAGMANDLVSTICLATPAPVAVLPAMNQQMYRAAATQHNLEVLASRGLLIWGPDSGSQACGDIGPGRMLDPLTIVDMAVAHFSPVNDLKHLNIMITAGPTREPLDPVRYISNHSSGKMGFAIAAAAARRGANVTLVSGPVSLPTPPFVKRVDVMTALEMEAAVNASVQQQNIFIGCAAVADYRAATVAPEKIKKQATQGDELTIKMVKNPDIAAGVAALKDHRPYVVGFAAETNNVEEYARQKRIRKNLDLICANDVSQPTQGFNSDNNALHLFWQDGDKVLPLERKELLGQLLLDEIVTRYDEKNRR"}}, "note": "± gives the standard deviation of the averaged measurements. Laboratory Escherichia coli strains with one amino-acid change in an essential protein, pooled on minimal glucose agar with carbenicillin or gentamicin at twice the control MIC (plus kanamycin and chloramphenicol for the plasmids), 48 h. Fold change of barcode share against drug-free plates; higher = less susceptible. Active = above 20 in both replicates (the paper's putatively resistant). '<' = one read or none on drug, '>' = one read or none on a drug-free plate. Shares are relative, so most strains fall below 1 when a few take over. Listed are strains with at least 15 reads on both drug-free plates, and hits; most hits rest on fewer reference reads. Replicate rank correlation about 0.5. Edits are read from barcodes.", "data": [{"molecular_target": "Escherichia coli (laboratory strain)", "test": "barcode share on antibiotic plates over drug-free plates; higher = less susceptible", "details": "antibiotic: carbenicillin; 2× MIC (3.1 µg/mL)", "description": "(§1)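 A pool of E. coli strains, each edited to carry one amino-acid change in an essential protein, was grown for 48 h on minimal glucose agar with or without antibiotic; strain barcodes were sequenced; mean of two replicates.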", "values": [{"protein": "B1", "fold change of barcode share": "0.254 ± 0.061"}, {"protein": "B2", "fold change of barcode share": "0.626 ± 0.56"}, {"protein": "B3", "fold change of barcode share": "1.38 ± 0.98"}, {"protein": "B4", "fold change of barcode share": "0.477 ± 0.26"}, {"protein": "B5", "fold change of barcode share": "0.344 ± 0.18"}, {"protein": "B6", "fold change of barcode share": "0.249 ± 0.087"}]}, {"molecular_target": "Escherichia coli (laboratory strain)", "test": "barcode share on antibiotic plates over drug-free plates; higher = less susceptible", "details": "antibiotic: gentamicin; 2× MIC (MIC 0.45 µg/mL)", "description": "as §1", "values": [{"protein": "B1", "fold change of barcode share": "0.00749 ± 0.0079"}, {"protein": "B2", "fold change of barcode share": "0.00707 ± 0.0016"}, {"protein": "B3", "fold change of barcode share": "< 0.0206"}, {"protein": "B4", "fold change of barcode share": "0.164 ± 0.22"}, {"protein": "B5", "fold change of barcode share": "< 0.0143"}, {"protein": "B6", "fold change of barcode share": "< 0.00668"}]}]}
